# In all, about 310,000 compounds went through this assay and about 2,200 (0.71%) showed an effect of 50% or more. Effects have a minus sign here. Some of the results follow. *1 amine or outer side, *2 acyl side, *3 side chain or, on linkers, in order; H or OH if unused. Where a SMILES comes first, the peptide text is derived from it. [ ]: non-standard residue; d: D form. ξ: configuration not given here. ξR = N=C(N)NCCCC(N)C(=O)O; ξF = NC(Cc1ccccc1)C(=O)O; CO = O=C([*:1])[*:2]
# Target: human ether-à-go-go-related gene (hERG) potassium channel (human, UniProt Q12809)
# Test: primary screen, population patch clamp on CHO cells stably expressing hERG
# human ether-à-go-go-related gene (hERG) potassium channel, sequence (Q12809 whole entry, looked up): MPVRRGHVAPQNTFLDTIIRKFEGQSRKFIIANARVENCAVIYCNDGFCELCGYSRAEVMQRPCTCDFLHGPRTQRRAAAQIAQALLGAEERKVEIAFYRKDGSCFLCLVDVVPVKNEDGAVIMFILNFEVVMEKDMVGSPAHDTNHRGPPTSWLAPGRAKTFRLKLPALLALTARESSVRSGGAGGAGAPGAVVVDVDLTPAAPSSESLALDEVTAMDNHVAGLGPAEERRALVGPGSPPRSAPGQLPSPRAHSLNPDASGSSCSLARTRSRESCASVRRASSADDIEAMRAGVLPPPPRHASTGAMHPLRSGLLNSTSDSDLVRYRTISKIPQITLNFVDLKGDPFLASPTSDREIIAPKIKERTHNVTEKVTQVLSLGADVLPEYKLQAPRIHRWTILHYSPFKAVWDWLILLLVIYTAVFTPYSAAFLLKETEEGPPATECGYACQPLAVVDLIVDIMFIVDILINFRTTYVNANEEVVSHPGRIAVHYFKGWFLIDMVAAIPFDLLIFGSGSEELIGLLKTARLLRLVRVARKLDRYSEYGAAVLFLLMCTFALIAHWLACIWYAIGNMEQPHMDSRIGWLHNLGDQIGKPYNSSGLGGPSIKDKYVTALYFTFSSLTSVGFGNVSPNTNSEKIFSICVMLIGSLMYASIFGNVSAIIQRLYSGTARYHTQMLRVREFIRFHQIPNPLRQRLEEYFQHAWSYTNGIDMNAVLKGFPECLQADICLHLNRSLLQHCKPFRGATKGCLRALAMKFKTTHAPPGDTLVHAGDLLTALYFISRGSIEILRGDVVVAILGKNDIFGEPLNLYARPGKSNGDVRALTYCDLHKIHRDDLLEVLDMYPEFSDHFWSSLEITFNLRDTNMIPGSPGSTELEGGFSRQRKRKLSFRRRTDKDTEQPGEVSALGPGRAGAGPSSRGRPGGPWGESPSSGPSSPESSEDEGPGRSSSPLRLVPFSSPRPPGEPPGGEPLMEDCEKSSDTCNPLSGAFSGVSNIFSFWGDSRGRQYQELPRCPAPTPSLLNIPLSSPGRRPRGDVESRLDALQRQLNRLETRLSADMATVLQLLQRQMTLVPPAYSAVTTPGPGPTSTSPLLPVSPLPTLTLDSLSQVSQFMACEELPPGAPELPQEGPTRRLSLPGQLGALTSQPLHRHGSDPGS
row,SMILES,"hERG current change (%, negative = inhibition) at 1uM [%]"
1,CSCC(=O)N1CCC(CCC(=O)NC2CC2)CC1,10.7
2,CCOC(=O)c1c(-c2ccccc2)csc1NC(=O)COc1ccc2c(C)cc(=O)oc2c1,9.49
3,CC(=O)c1cccc(NC(=S)NC(=O)c2ccccc2Br)c1,11.9
4,Cc1cc(NC(=O)COC(=O)C(C)Oc2ccc(Cl)cc2Cl)no1 (centres unmarked),19.1
5,CCOC(=O)C1=C(N)n2c(s/c(=C\c3cccnc3)c2=O)=C(C(=O)OC)C1c1cccnc1 (centres unmarked),10.4
6,O=C(Nc1ccccc1)N1CCCC1,0.56
7,COC(=O)CCC(=O)N(CCN(Cc1ccccc1)C(=O)CCC(=O)OC)Cc1ccccc1,5.12
8,CN1C(=O)CSC1=Nc1cccc(C(=O)O)c1,11.7
9,CC(C)N(CCCNC(=O)C1CCN(C(=O)c2cc3sccc3n2C)CC1)Cc1ccccc1,-6.77
10,CC(C)c1ccccc1NC(=O)c1cnccn1,2.73
11,N#Cc1cccc(NC(=O)CSc2n[nH]c(=O)[nH]c2=O)c1,9.04
12,CCCCc1ccc(CC(=O)Nc2cc(S(=O)(=O)N3CCOCC3)ccc2O)cc1,12.3
13,O=C(Cc1cccc(C(F)(F)F)c1)NCc1cccc(Cl)c1,9.22
14,O=C(CSc1cccc2cccc(Cl)c12)OCC(=O)N1CCN(C(=O)c2ccco2)CC1,-14.2
15,CC(=O)N(C(C)=O)c1nc2nc(C)cc(C)n2n1,9.89
16,CCCC(=O)Nc1cc2c3c(c1)C(C)C(=O)N3CCC2 (centres unmarked),15.1
17,COc1ccc(NC(=S)N2CCC(c3ccccc3)C2)cc1 (centres unmarked),9.29
18,CSCc1c(C(=O)Nc2ccccc2N2CCOCC2)oc2ccccc12,6.48
19,CCN(CC)CCOC(=O)c1cccc(Br)c1.Cl,-30
20,COc1ccccc1N1CCN(C(=O)c2ccc3c(=O)n(Cc4ccc5c(c4)OCO5)c(=O)[nH]c3c2)CC1,19.4
21,Cc1ccc(-n2nc3c(=O)n(CC(=O)NCCc4ccccc4C)nc(C)c3c2C)cc1,7.42
22,O=C(CSc1ccc(-c2cccc([N+](=O)[O-])c2)nn1)NC1CCCC1,14.2

row,SMILES,"hERG current change (%, negative = inhibition) at 1uM [%]"
1,Cc1ccc(C)c(OCC(=O)Nc2cccc(S(=O)(=O)NC3=NCCCCC3)c2)c1,5.48
2,CN(C(=O)COC(=O)c1cc([N+](=O)[O-])ccc1Sc1ccccc1)C1CCS(=O)(=O)C1 (centres unmarked),20.6
3,Cc1cccc(Cn2c(C(C)(C)C)cc3cccnc32)c1,-4.68
4,NC(=O)CN1C(=O)C(O)(CC(=O)/C=C\c2ccc3c(c2)OCO3)c2ccccc21 (centres unmarked),12.9
5,C#CCn1c(O)c(N=NC(=O)CNC(=O)c2cccnc2)c2ccccc21,5.89
6,Cc1c(NC(=O)CN2C(=O)c3cccc4cccc2c34)c(=O)n(-c2ccccc2)n1C,6.27
7,COc1ccc(C(=O)N2CCc3c([nH]c4ccccc34)C2C(F)(F)F)cc1 (centres unmarked),12.1
8,COc1ccc(-n2nnnc2-c2cccc(OC)c2)cc1,-1.29
9,CCOC(=O)/C(C#N)=C/C=C1/C=CC=CN1C,11
10,Cc1nc(Nc2ccncc2)c2oc3ccccc3c2n1,4.59
11,COc1cccc(/C=N/NC(=O)c2cccs2)c1,1.83
12,Cn1cc(Cl)c(C(=O)Nc2nccs2)n1,11.9
13,Cc1ccc(NC(=O)CCSc2nnc(C)s2)cc1,7.77
14,CS(=O)(=O)N(CC(=O)N1CCCC1)c1cc(C(F)(F)F)ccc1Cl,10.5
15,CCOC(=O)c1c(NC(=S)Nc2cccnc2)sc(C)c1C,10.5
16,CCN(CC(=O)NCc1ccc(F)cc1)C(=O)c1cc2ccccc2o1,-20.9
17,CCC1C(=O)CC(c2ccc([N+](=O)[O-])cc2)NC1c1ccc([N+](=O)[O-])cc1 (centres unmarked),-69.7
18,Cc1ccc(N=Nc2cc(C)ccc2N)cc1,6.45
19,CCCS(=O)(=O)Nc1ccc(-c2cn3c(n2)SCC3)cc1,12.5
20,O=C(COC(=O)c1cncc(Br)c1)Nc1ccc(N2CCCCC2)cc1,6.82
21,CS/C(=N\S(=O)(=O)c1cccs1)Nc1cccc(Cl)c1C,10.3
22,Cl.OC(COc1ccccc1)CN1CCC(Cc2ccccc2)CC1 (centres unmarked),-78

row,SMILES,"hERG current change (%, negative = inhibition) at 1uM [%]"
1,CCN(CC)CCN(C(=O)CCS(=O)(=O)c1ccccc1)c1nc2c(C)cc(C)cc2s1.Cl,5.59
2,O=C(COc1ccc(F)cc1Cl)Nc1ccccc1C(=O)N1CCCCC1,8.94
3,COc1ccc(/C=N/NC(=O)c2ccccc2NC(=O)c2ccco2)c(OC)c1,14.4
4,CC1C(=O)Nc2ccccc2N1C(=O)C1CC1 (centres unmarked),-3.82
5,CCCCCCCNC(=O)C1(CC2CC(c3cccc(Br)c3)=NO2)CCN(C(=O)c2cc(OCC)c(OCC)c(OCC)c2)CC1 (centres unmarked),13.5
6,O=C(c1cccc(Br)c1)N1CCN(C2=NS(=O)(=O)c3ccccc32)CC1,-26
7,CC(C)[C@H](NC(=O)[C@H](CCCN=C(N)N)NC(=O)NC(Cc1ccccc1)C(=O)O)C(=O)NC(C=O)CCCN=C(N)N (stereo partly drawn) ({ξF-CO}-Arg-Val-[ξR]-aldehyde),14.1
8,CCOC(=O)N1CCC(NC(=O)c2cc3c(C)nc4ccccc4c3o2)CC1,-0.501
9,CC1(C)CC(=O)C2=C(C1)NC(=S)C(C#N)C21CCCCC1 (centres unmarked),10.1
10,CCOC(=O)c1ccc2ncc(C(=O)OCC)c(NCCN(C)C)c2c1,-19.3
11,CCCCN1CC(=O)N2[C@H](c3ccc(Cl)cc3)[C@@H]3C(=O)N(CC)C(=O)[C@@H]3[C@]2(Cc2ccccc2)C1=O,-18.7
12,CCOC(=O)C(C)(C)N(Cc1cccc(C)c1)S(=O)(=O)c1cccc([N+](=O)[O-])c1,13.3
13,NC(=O)c1cc(NC(=O)c2cc(Br)c(Br)s2)cc(C(N)=O)c1,10.2
14,COc1ccc(-c2cc(C(=O)Nc3ccc(S(=O)(=O)Nc4ncccn4)cc3)c3ccccc3n2)cc1,5.65
15,O=C(c1cc([N+](=O)[O-])cc([N+](=O)[O-])c1)N1CCN(C(=O)c2ccco2)CC1,-30.6
16,CCN(CC(=O)Nc1c(F)cccc1F)C(=O)/C=C/c1ccc(Br)s1,-15
17,NNC(=O)c1oc2nc(-c3ccco3)cc(-c3ccco3)c2c1N,14.7
18,CCOC(=O)N1CCN(C(=S)NC(=O)c2c(-c3c(Cl)cccc3Cl)noc2C)CC1,2.45
19,Cc1ccc2c(C)c(C(=O)N3CCCCC3CO)oc2c1C (centres unmarked),14.6
20,COc1cc(/C=N\Nc2nc3ccccc3o2)cc(OC)c1OC,7.62
21,CC(C)CC1Nc2ccc(C(=O)NCc3ccc4c(c3)OCO4)cc2NC1=O (centres unmarked),4.29
22,N#Cc1c(Cl)cccc1Oc1ccc(S(=O)(=O)Nc2ccccc2)cc1,10.9

row,SMILES,"hERG current change (%, negative = inhibition) at 1uM [%]"
1,Cc1ccc(N)cc1CN1CCCC1=O,4.66
2,CCc1nnc(NC(=O)c2cccc(S(=O)(=O)N3CCc4ccccc43)c2)s1,-6.24
3,COc1cc(C(c2c(C)[nH][nH]c2=O)c2c(C)[nH][nH]c2=O)ccc1OS(=O)(=O)c1ccc(C)cc1,11.3
4,C=CCOC(=O)C1=C[C@H](c2ccccc2)[C@@H](CCCO)[C@H](OCC)O1,8.79
5,Cc1ccc(-c2nc(C)sc2CC(=O)O)cc1,12.2
6,Cc1ccccc1/C=N/N=C1/NC(=O)CCS1,7.95
7,N#CC1(C#N)CC(C=O)=C(N)C1(C#N)CC(=O)C12CC3CC(CC(C3)C1)C2 (centres unmarked),14.2
8,CCc1cc(=O)oc2c3c(cc(OCC(=O)NCCC(=O)O)c12)OC(C)(C)CC3,17.4
9,Cc1cc(C)c2nc(NCc3ccccc3O)sc2c1,12.8
10,C(=N\n1cnnc1)/c1ccc(N2CCOCC2)s1,6.52
11,CN(C)/C=C(\c1cnc(Cl)s1)S(=O)(=O)c1ccccc1,20.4
12,O=C(CSc1ccccc1C(=O)O)Nc1ccc2c(c1)OCO2,1.97
13,Cc1ccc(C(C)(C)C)c(OCCOCCN2CCCC2)c1,6.49
14,CN1CCN(C(c2cccc(Cl)c2)c2ccccc2Cl)CC1.O=C(O)/C=C\C(=O)O (centres unmarked),-34.6
15,COc1ccc(N=Nc2c(C)[nH]c3ccccc23)cc1,13.6
16,COc1ccc(C(CCN2CCN(c3ccccc3)CC2)c2c(OC)cc(OC)c3c(-c4ccccc4)cc(=O)oc23)cc1 (centres unmarked),6.92
17,COc1ccc(C2=NOC(C3(S(=O)(=O)c4ccccc4)CC(O)C3)C2)cc1 (centres unmarked),7
18,CC(C)C1C(c2ccccc2)N(C)C(c2ccccc2)CC1(O)c1ccccc1 (centres unmarked),-7.38
19,CS(=O)(=O)c1cccc(-c2nnc(NC(=O)c3ccc(S(=O)(=O)N4CCCC4)cc3)o2)c1,-1.18
20,COC(=O)c1sc2nc(C)cc(-c3ccccc3)c2c1N,10.5

# Source: PMC4336329 (PLoS ONE, 2015)
